Molecules are shown by their SMILES. This is one part of the list. Shown are side measurements of this screen, not its main read-out; they come without a call.

The nature of the assay: compounds boosting herpes simplex virus growth – fold increase, host cell viability (AID 1956). Also: tested in PC3 cells. To be noted: HSV replication augmentation in cells; fold increase: measured here: primary screen fold increase 10 uM, at 10 µM, stronger effect = higher value; viability: measured here: host cell viability series, at 25 µM, stronger effect = lower value.
Take `CCN(CC)c1ccc(/C=N/NC(=O)c2cccc(S(=O)(=O)N3CCOCC3)c2)c(O)c1`: the fold increase was determined as 1.32.

Regarding `Nc1c(S(=O)(=O)c2ccccc2)c2nc3ccccc3nc2n1/N=C/c1ccco1`, the fold increase was determined as 1.53 and the viability stood at 80.5%. In the same order, the values of `COc1ccc(C2NC(=S)NC(C)=C2C(=O)c2ccccc2)cc1OC` (centres undefined) are 1.4 and 97.8%. Turning to `Cc1ccc(C2C3CSCC=C3C(C#N)=C(N)C2(C#N)C#N)cc1` (centres undefined), the fold increase was determined as 1.41 and the viability was found to be 86.7%. As to `CCc1cc(C(=O)OC)c(N2C(=O)C3C4C=CC(C4)C3C2=O)s1` (centres undefined), the fold increase amounted to 1.33 and the viability was 99.8%. For `Cc1cccc(N=Nc2c(C)c(C#N)c(O)[nH]c2=O)c1`, in that order: 1.86 and 96.5%. In the same order, the values of `CC(=O)c1cc2c(C)c(C(=O)c3ccccc3)oc2cc1O` are 3.53 and 95.8%. In the same order, the values of `CCc1ccc[n+](-c2[nH]c(=O)sc2/C=N/NC([S-])=Nc2ccccc2)c1` are 2.46 and 97.5%. Take `COCCCNC(=O)/C(C#N)=c1\s/c(=C\c2ccccc2OC(F)F)c(=O)n1CCCOC`: the fold increase came out at 1.66 and the viability was found to be 90.6%.

For the molecule `CC1=[N+](C)c2c(ccc3cccnc23)C1(C)C`, the fold increase is 1.35 and the viability came to 62.9%. On to `CCN(CC)c1ccc2cc(-c3nc4ccccc4n3C)c(=O)oc2c1`, for which the fold increase is 1.49 and the viability was determined as 38%. In the same order, the values of `N/C(=N\OC(=O)Cc1ccccc1)c1cccnc1` are 1.53 and 100%.

On to `CN1Cc2sc(N)c(C#N)c2CC1(C)C`, for which the fold increase came to 1.68 and the viability came to 95.1%. For `Cc1ccc(C2(c3noc(CN(C)Cc4cnn(C)c4)n3)CCCC2)cc1`, in that order: 1.71 and 95.7%.

`CC(=O)c1cc(O)c2ccccc2c1O` came in with a fold increase of 1.54. In the case of `CN1/C(=C\C=N\NC(=O)c2cccnc2)C(C)(C)c2ccccc21`, the fold increase is 1.4 and the viability was 86.2%. In the case of `COc1ccccc1N(CC(=O)N/N=C/c1ccccc1C(=O)O)S(C)(=O)=O`, the fold increase came out at 1.41 and the viability worked out at 96.7%. As for `O=C1c2cccc3c(N4CCCCC4)ccc(c23)C(=O)N1c1ccc(O)cc1`, the fold increase was 9.55.

As for `CCN(c1ccccc1)c1cc(C)nc2ncnn12`, the fold increase worked out at 1.39 and the viability worked out at 97.4%. In the case of `Cc1nn2c(c1-c1ccccc1)N=C(c1ccco1)CC2c1ccccc1` (centres undefined), the fold increase amounted to 1.32 and the viability came to 97.5%. In the same order, the values of `COCCN(CCOC)C(=O)c1cc2c(=O)n3ccccc3nc2s1` are 1.33 and 97.5%. For `COCCCNC(=O)c1ccc(CS(=O)(=O)c2ccc(Br)cc2)o1`, in that order: 1.32 and 96.2%. For `CN1/C(=C\C=C2/SC(=S)NC2=O)C(C)(C)c2ccccc21`, in that order: 8.96 and 36.6%. `COc1ccc2nc(N3C(=O)/C(=C/c4ccccc4)NC3=S)sc2c1`: the fold increase is 1.65. `CCOC(=O)CN1C=C(c2ccc3ccccc3n2)C(C[N+](=O)[O-])c2ccccc21` (centres undefined): the fold increase was 3.94 and the viability was found to be 92.7%. In the case of `CCOC(=O)CC1C(=O)NCCN1c1nc2c(C)cccn2c(=O)c1/C=C1\SC(=S)N(CC(C)C)C1=O` (centres undefined), the fold increase came out at 8.04.

Regarding `CCOC(=O)C1C(=O)C=C(/C=C/c2ccc(N(C)C)cc2)CC1c1ccccc1` (centres undefined), the fold increase was found to be 10.2. For `CCOc1cc(/C=C2\SC(=S)N(C(C(=O)O)c3ccccc3)C2=O)ccc1O` (centres undefined), the fold increase was 4.6. As for `Oc1ccc(C=Nc2ccc3ncccc3c2)c(O)c1`, the fold increase came to 1.7 and the viability is 100%.

As to `N#CC1(C#N)C2=C(CCCC2)NC(c2ccccc2)C1(C#N)C#N` (centres undefined), the fold increase turned out to be 1.46 and the viability came to 89%. On to `O=C(O)C(=O)/C(=C\c1ccc([N+](=O)[O-])cc1)c1ccc2ccccc2n1`, for which the fold increase stood at 1.33 and the viability was found to be 97.8%.

Regarding `CN(C)c1ccc(/C=C/c2nc3ccccc3s2)cc1`, the fold increase was found to be 1.35 and the viability turned out to be 63.6%. `COc1cc(/C=C(\C#N)c2nc(-c3cc4ccccc4oc3=O)cs2)ccc1O`: the fold increase was 4.01 and the viability came out at 50.4%. For `Cc1nc2ccccc2n1C1CC(=O)N(N(C)C)C1=O` (centres undefined), in that order: 1.43 and 99.9%. The molecule `CCCN1C(=O)/C(=C/c2c(NCCCOCC)nc3c(C)cccn3c2=O)SC1=S` returned a fold increase of 1.91. `COc1ccccc1N1C(=O)C2C(C(=O)c3ccccc3)=NN(c3ccccc3)C2C1=O` (centres undefined): the fold increase was 1.69 and the viability was 97.2%.

On to `N#CC1=C(N)N2C(=C(C#N)C1c1ccc(Br)cc1)Nc1ccccc12` (centres undefined), for which the fold increase worked out at 1.63 and the viability was found to be 27.5%. For `CCCCN(C(=O)/C=C/c1ccco1)c1c(N)n(Cc2ccccc2)c(=O)[nH]c1=O`, in that order: 1.58 and 95.8%. In the same order, the values of `CN1C=CC2=C(C#N)C(N)C(C#N)(C#N)[C@H](c3ccccc3)[C@H]2C1` (some centres undefined) are 1.4 and 93.6%. Consider `Oc1sc(C=Nc2ccccc2)c2ccccc12`, for which the fold increase is 1.38 and the viability was found to be 81.8%. Take `O=C1/C(=C\c2ccco2)NC(=S)N1c1ccccc1`: the fold increase is 1.5 and the viability turned out to be 96.6%. `CCNc1c2c3c(cccc3n(C)c1=O)C(=O)c1ccccc1-2`: the fold increase was 18.5 and the viability was 76.2%. For the molecule `O=C(N/N=C/c1cc(Cl)cc([N+](=O)[O-])c1O)c1ccccc1NS(=O)(=O)c1cccs1`, the fold increase stood at 1.38 and the viability was 94%.

With `Cc1cc(C)n(CCN(C)C(=O)CCc2nnc(-c3ccc4c(c3)OCO4)o2)n1`, the fold increase was 1.34 and the viability was determined as 94.2%. `CCN(CC)c1ccc(C(=O)OCc2cc(=O)oc3cc(O)ccc23)cc1` yielded a fold increase of 1.17. Turning to `N#C/C(=C\c1ccc(OC(=O)c2cccs2)cc1)c1nc2ccccc2[nH]1`, the fold increase came out at 1.4 and the viability stood at 94%. With `O=C1c2ccccc2NC(c2ccc(Cl)cc2Cl)N1O` (centres undefined), the fold increase is 1.19.

Take `COC(=O)c1cc2n3ccccc3c(C)c(-c3ccccc3)c-2c1C(=O)OC`: the fold increase is 1.1 and the viability turned out to be 97.4%. `CCN(CC)CC(=O)Nc1cc(N(C)C)nc2ccccc12`: the fold increase came to 1.34 and the viability stood at 98.1%.

`CC(=O)N/N=C/c1cc(C(C)C)cc(/C=N/NC(C)=O)c1O`: the fold increase came out at 6.33 and the viability is 103%. In the same order, the values of `CC(C)N1CCc2c(sc(NC(=S)NC(=O)c3ccccc3)c2C#N)C1` are 2.33 and 95.5%. For `CN(C)c1ccc(/C=C/c2cc[n+](C)cc2)cc1`, in that order: 2.3 and 17.1%.

Take `Cc1ccc(OCC(=O)N/N=C\c2ccc(-c3cccc(C(=O)O)c3)o2)c(C)c1`: the fold increase is 1.63 and the viability turned out to be 94.3%. In the same order, the values of `O=C1CN(c2ccccc2F)C(=O)CN1c1ccccc1F` are 1.34 and 102%. For `Cn1c(=O)c(NC2CCCCC2)c2c3c(cccc31)C(=O)c1ccccc1-2`, in that order: 8.65 and 92.8%. In the same order, the values of `CC(=O)Cc1cc(O)c2ccccc2c1OC(=O)c1ccc(Br)cc1` are 1.96 and 90.5%. Take `CCC(OC(=O)CC1Sc2ccccc2NC1=O)C(=O)NCC1CCCO1` (centres undefined): the fold increase turned out to be 1.32 and the viability came out at 105%. `COc1cc(SC)ccc1C(=O)Nc1ccc(S(=O)(=O)N2CCCC2)cc1` showed a fold increase of 1.08. As to `CCOC(=O)C1=C(O)c2ccccc2C(=O)/C1=C\c1ccc(CC)cc1`, the fold increase worked out at 1.54.

`CN(C)c1ccc(/C=C2\SC(=O)N(CC(O)Cn3c4ccccc4c4ccccc43)C2=O)cc1` (centres undefined): the fold increase was 1.62. The molecule `C/C(=N\NC(=O)c1c(Cl)c(C)nn1C)c1cccc(NC(=O)COc2ccccc2)c1` gave a fold increase of 1.42. `CCOC(=O)C1C(=O)CC(C)(O)C(C(=O)OCC)C1c1cccs1` (centres undefined): the fold increase was determined as 1.35 and the viability was determined as 97.7%. As for `COc1ccccc1N1CCN(C(=O)c2ccc3c(Cl)c4c(nc3c2)CCCC4)CC1`, the fold increase is 1.32. `CCOC(=O)COc1ccc(S(=O)(=O)Nc2ccc(C)cc2)cc1`: the fold increase stood at 1.36 and the viability came to 53.6%. In the case of `O=C(O)c1cc(Cl)c(Cl)cc1C(=O)Nc1cccc2ncccc12`, the fold increase stood at 1.51 and the viability was 93.2%. For `O=C/C(=C\Nc1ccccn1)c1nc2cc(Cl)ccc2o1`, the fold increase stood at 1.34 and the viability was 95.7%.

As to `Brc1ccc(-c2cn3nc4c(nc3n2)CCCC4)cc1`, the fold increase was determined as 1.4 and the viability was 93.5%. `N#Cc1c(Cn2cncn2)nc(=O)n(-c2ccccc2)c1N`: the fold increase was 1.48 and the viability stood at 104%. For `COc1ccc(C(=O)N/N=C/c2sc3ccccc3c2O)cc1`, in that order: 1.37 and 8.64%. For `Oc1c(Cl)cc(Cl)cc1C=Nc1ccccc1N1CCCC1`, in that order: 1.33 and 103%. With `COCCCn1c(=O)/c(=C\c2ccccc2OC(C)C)s/c1=C(/C#N)C(=O)Nc1ccc(C(=O)O)cc1`, the fold increase came to 1.65 and the viability came to 101%. Consider `COc1ccc(CNC(=O)/C(C#N)=C2\N=C(NC(=O)c3cccs3)c3ccccc32)cc1`, for which the fold increase is 1.37 and the viability stood at 95.2%. In the case of `O=C(COC(=O)c1cccnc1)Nc1ccc2c(c1)OCO2`, the fold increase worked out at 1.41 and the viability is 92.9%. In the same order, the values of `Cc1cc(/C=N/NC(N)=S)c(O)c(/C=N/NC(N)=S)c1` are 5.59 and 87.2%.

Consider `O=C(O)COCC(=O)Nc1ccccc1-c1ccccc1`, for which the fold increase was determined as 1.43 and the viability was 93.8%. Molecule `CCOc1ccc(N2C(=O)C3Sc4[nH]c(=O)sc4C(/C=C/c4ccccc4)C3C2=O)cc1` (centres undefined) yielded a fold increase of 1.6. On to `O=C(O)c1ccccc1C1=Nc2ccc(O)cc2Oc2cc(O)ccc21`, for which the fold increase amounted to 2.03 and the viability is 99.6%. For `O=C(CC1SC(=Nc2ccc(O)cc2)NC1=O)Nc1ccccc1` (centres undefined), in that order: 1.35 and 87.1%. For `CCOC(=O)c1ccc(NC(=O)COc2cc(=O)n(CC)c3ccccc23)cc1`, in that order: 1.35 and 95.6%. `O=c1[nH]c2ccc(Cl)cc2c(-c2ccccc2)c1SC(=S)N1CCCCC1` displayed a fold increase of 1.34. As for `Cn1cccc1/C=C1\CCC/C(=C\c2cccn2C)C1=O`, the fold increase turned out to be 4.16 and the viability worked out at 95.2%.

On to `CC(=O)NS(=O)(=O)c1ccc(Nc2ccc([N+](=O)[O-])c3nonc23)cc1`, for which the fold increase came to 1.33 and the viability amounted to 93.4%. In the same order, the values of `O=C(O)CC/C(=N/NC(=O)CNC(=O)Cc1ccccc1)c1ccccc1` are 1.33 and 98.2%. For `CCOC(=O)c1c(/N=C/c2ccc(O)cc2O)sc2c1CCC2`, in that order: 2.42 and 101%. `CC(=O)Oc1cc2c(cc1Cl)C1(CC(c3ccccc3Cl)O2)CC(C)(C)NC(=S)N1` (centres undefined) came in with a fold increase of 1.4. With `O=c1c[n+]([O-])c2ccccc2n1OCc1c(F)cccc1F`, the fold increase amounted to 1.28 and the viability came to 96.2%. For `Cc1[nH]c2ccccc2c1/C=N/Nc1ccc([N+](=O)[O-])cc1`, in that order: 1.79 and 87.5%. Consider `CS(=O)(=O)N(CC(=O)N1CCC(C(N)=O)CC1)c1ccc(Cl)c(C(F)(F)F)c1`, for which the fold increase was determined as 1.36 and the viability is 92.5%. `CNCCCNCc1ccc(SC)cc1` displayed a fold increase of 1.39. With `CC(=O)C1=C(C)NC(SCC(=O)c2ccc(Cl)cc2)=C(C#N)C1c1ccco1` (centres undefined), the fold increase is 1.37 and the viability was 72.8%.

Consider `COc1cc(/C=C2\SC(=S)N(NS(=O)(=O)c3ccccc3)C2=O)ccc1O`, for which the fold increase was 7.91 and the viability is 95.1%. For `COC(=O)C1=C(C)NC(=O)/C1=C\c1cc(C)n(-c2c(C)cccc2C)c1C`, in that order: 1.47 and 72.3%. In the case of `Oc1c(Cl)cc(Cl)cc1/C=C/c1ccc2cccc(O)c2n1`, the fold increase was found to be 3.88. The molecule `CCO/C=C1\N=C(c2ccc(F)cc2)OC1=O` came in with a fold increase of 1.4. For the molecule `O=C1c2ccccc2C(Nc2ccc3c(c2)OCCO3)N1Cc1ccccc1` (centres undefined), the fold increase turned out to be 1.34 and the viability was 97.1%.

One may read the viability as a read-out of living cells in per cent, often relative to untreated cells.

The values are drawn from PubChem BioAssay AID1956 (SRMLSC, 2009).
